Growth data for one compound are collected here from PubChem BioAssay (NCI).

Where a structure was tested more than once in an assay, its records may differ in their call.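 Method: cells in 96-well plates; compound added at one concentration; 48 h incubation; percent growth measured; values under 10 scored active.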 Some entries of the source have several records that differ or are many. The list is limited to them. An entry can have further records. These are repeated runs of one drug, at the concentration stated with the values; each value is one run. Counts like (3×) stand for listed records that agree.

For one assay, the system named is OVCAR-5 ovarian. As to the kind of experiment: NCI-60 one-dose screen, 48 h (100 = growth as untreated, 0 = no growth, -100 = all killed).
The test system of a further assay is OVCAR-4 ovarian. The description is as above. As to conditions: 0.25 µM.

With `COc1cccc2c1C(=O)c1c(O)c3c(c(O)c1C2=O)C[C@@](O)(C(=O)CO)C[C@@H]3OC1CC(N)C(O)C(C)O1` (some centres not stated), the growth entry was “inactive: 68.6 (2×), 71.2 (2×), 85.2, 74.8 (2×), 65.6, 71.7, 63, 77.5, 64.4, 86, 89.3, 74.1 (2×), 80.6, 91.3, 71.8, 61.3, 58.2, 56.9, 64.8, 60.3, 64.2 (2×), 70, 85.8, 69.8, 70.5, 62.4, 63.1, 74.2, 79, 84.5, 83.3, 83.7, 82.7, 83.1, 79.3, 77.7, 75.9, 82, 79.6, 88.6, 76.1, 75.1, 65.4, 71.3, 66.6, 74, 72.9, 73.6, 65.9, 85.6, 94.7, 79.2, 78.2, 95.4, 81, 87.4, 72.6, 90.7, 94.8, 86.7, 82.8, 77.6, 78.8 (3×), 75.8, 86.4, 77.4, 76.3, 70.2, 74.9, 70.7, 77.8, 80.4, 72.4, 86.9, 78.1, 81.8, 87.5%” in the assay on OVCAR-5 ovarian (0.25 µM, runs of 2015); “inactive: 83.3 (2×), 82.9, 98.2 (2×), 94.8, 99.3, 71.2, 76.5, 85, 81.8, 87.7, 77.1, 83.1, 75, 86.4, 69.6, 82.4, 91.5 (2×), 77.6, 74.8, 83, 90.2, 92.4, 78.4, 75.4, 63.3, 83.4, 90.4, 69.2, 70.3, 73.5, 80.2, 69.7, 84.7, 88.6, 96.6, 80, 94.6 (3×), 85.1, 82.2, 85.4, 84.5, 85.9, 93.2, 91.8 (2×), 89.7 (2×), 84.3, 85.8, 93.1, 90.8, 91.1, 93.8, 89.1, 93.3, 97.8, 98.5, 94.1 (2×), 95.1, 102 (2×), 99.4, 91.7, 89.3, 95, 94.4, 98.1, 87.8, 94.2, 101%” in the assay with OVCAR-5 ovarian (0.25 µM, runs of 2016); “inactive: 85.5 (2×), 87.9, 83.2, 88, 84.5, 89.3, 74.8 (2×), 72.5, 78, 85, 81.2 (3×), 78.2, 76.9 (2×), 76.6, 75.8 (3×), 83, 83.3 (2×), 76.3 (2×), 73.2, 77.3, 82.6 (2×), 78.4, 73.3, 78.8, 92.4, 75, 87.2, 70.7, 75.2 (2×), 74.2 (2×), 86.4, 72.8, 75.3, 70.3, 77.4, 76.7 (2×), 77.7, 81.5, 85.8 (3×), 76, 79.6, 87 (2×), 90.3, 69.2, 71.8, 69.3, 69.9, 79.9, 96.7, 77.1, 77.8, 78.5, 94.6, 73.8, 71.7, 81.7, 84.3, 72.6, 74, 81.1, 91.1, 78.3, 78.1, 75.7%” in the assay with OVCAR-5 ovarian (0.25 µM, runs of 2017); “inactive: 78.8, 79.2 (2×), 77 (2×), 79.6, 83.4, 82.8 (2×), 73.8, 78.5, 75.8, 80.7 (2×), 82.3, 88.9, 89, 95, 83.7 (2×), 89.2, 76.9 (2×), 82.5, 84, 71.8, 74, 76, 77.4, 87.2, 74.7, 83, 87.4 (3×), 83.1, 78.2 (3×), 90, 89.1, 82 (2×), 81.4, 88.7, 79.1, 82.6, 85.6, 80.5, 75.3, 79.8, 52.7%” in the assay on OVCAR-5 ovarian (0.25 µM, runs of 2018); “inactive: 61.6, 68.5, 63.9, 50.6, 62.5, 72, 84.4, 79.1, 88.2 (2×), 97.5, 78.5, 77.7 (2×), 94.5, 96.1, 74.7, 83.7, 67.2, 66.1, 73.6, 70.6, 81.2, 79.6, 80, 81.5, 98.3, 91.6, 86.8, 85.4, 87.2, 81.1, 91.5, 76.7, 82.7, 86.1, 85.9, 82.9, 74, 76.8, 74.9, 89.6, 67.5, 75.4, 65, 65.1%” in the assay with OVCAR-5 ovarian (0.25 µM, runs of 2019); “inactive: 74, 69.4, 74.4, 80.7, 76.2, 76.7, 67.2, 77.7, 71.2, 73.8, 77.1, 68.9, 70.5 (2×), 78.5 (2×), 89.7, 77.5 (2×), 73.3, 82.9, 81, 90.4, 74.6, 79.2%” with OVCAR-5 ovarian (0.25 µM, runs of 2020). The growth entry is “inactive: 89.9, 96.4, 101, 83.7, 81.2, 78.4, 58.2, 70.6, 65.7, 72.3, 65.4 (2×), 64, 72.9 (2×), 81.7, 80.1 (2×), 75.9, 79.1, 76.2, 63.2, 81.1, 88.2 (2×), 72.4, 78.7 (2×), 64.8, 71.5, 79, 77.4, 80.6, 79.2, 75.1, 73.5, 68.5, 75.3, 78.8, 85.8, 80.3 (2×), 86.4, 58.9, 70.9, 63.1, 71, 53.4, 67.6 (2×), 80.2, 74.3%” with OVCAR-5 ovarian (0.25 µM, runs of 2021); “inactive: 16.8, 16, 64, 78.4, 56.8, 35.3, 55.8, 60.2, 73.5, 65.9, 68.2, 84, 70, 78.1, 82.2, 75.4, 70.8, 89.7, 98.5, 93.7, 109, 87.5, 65.3, 69.2, 62.4, 68, 55.1% and active: 7.62%” in the assay with OVCAR-5 ovarian (0.25 µM, runs of 2022); “active: -10.9, -68.4, -55.2, -42.6, -43.6, -4.91, -14.1, -54.5, -37.3, -13.8, 5.42, -27.7, -15.4, -28.5, -5.01% and inactive: 14%” with OVCAR-5 ovarian (25 µM, runs of 1991); “active: -46.5 (2×), 3.91, -22.2, -6.93, -38.8, -53.2, -70, -34.9, -45.1, -8.29, -25, -35.3, -37.1 (2×), -16.4, -16, -24.5, -27.5 (2×), -23.8, -40.1, -43.6, -42.5, -43.7 (2×), -16.5, -46.4, 7.7, -39.1, 0, -43.1, -21 (2×), -12.3, -28.2, -39.7, -40.3, -21.7, -28, -50.4, -41.1, -31.5, -25.8, -34.8, -11.2, -5.57, 0.528, -12, -2.61, -28.9, -39.6, -32.3, -23.4, -35.8, -22.5, -42.4, -34.6 (2×), -15.1, -18.2, -11, -23.5, -31, -36.8, -6.76, -22.8, -17.3, -17.2, -11.7, -18.6, -13.4, -7.74, -26, -3.84, -4.55, -21.4, -8.14, -48.6, -12.5, -19.2, -21.2, -10.8, -24.4, -12.8, -12.2, -17.5, -18.4, -17.1, -42.7, -6.99, -9.42, 0.828, -41.8, -39.2, -16.1, -8.48, 3.18, -27.1, -33.3, -16.2, -38.4, -24.9, -28.4, -15.5, -49.7, -41.5, -29.9% and inactive: 14.6%” in the assay with OVCAR-5 ovarian (25 µM, runs of 1992); “active: -38.7, -10.5, -24.1, 1.2, -12.4, -21.1, -17.6, 6.78, 1.8, -41.1, -31, -9.4 (2×), -15.4 (2×), -6.39, 1.93, 0.591, -46.7, -20.6, -1.08, -7.43, -32.9, -2.1, -40.6, -17.2, 5.33, -43.5, -21.3, -30.6, -30.5, -30, -15.2, -34.6, -25.8, 6.58, -34.3, -6.73, -12.2, -13, 0.969, -18.8%” in the assay with OVCAR-5 ovarian (25 µM, runs of 1993); “active: -15.4, 0.804, 1.4, -13.3, -3.85, -26.2, 7.01, -8.78, -41.5, -5.47, 6.48, -7.51, -3.03, -33.7, -15.3, -15, -22.4, 3.24, -34.6, -19.2, -23.1, -32.3, -5.58, -39.5, -14, -6.2, 3.68, -13.8, 2.88, 0.36% and inactive: 51.6%, 12.5%” in the assay on OVCAR-5 ovarian (25 µM, runs of 1994). Also, the growth result in the assay on OVCAR-5 ovarian (25 µM, runs of 1995) was “active: 7.17, 3.83, -2.2, 8.14, -18.3, 1.45, -20, 5.07, -3.42, -33.9, -25.3, -30.4, -24.3, -27, 5.25, 0.793, -47.9, -17.8, -17.1, -21.5, 8.92, -17.4, 8.52, 0.575, 1.39, -11.1, -7.21, -16.8, -2.81, -0.949, -36.4, -34.8, -42.5, -19% and inactive: 29.7%, 13.3%”; in the assay on OVCAR-5 ovarian (25 µM, runs of 1996) it was “active: -4.46, 5.26, -11.8, -1.09, -37.5, -7.84, 9.37, 6.03, -14.1, -7.99, -11.5, 3.58, 2.38, -13.5, 1.17, -40, -16.9, 0.888, 7.91, -14.8, 5.18, 6.54, 8, -11.9, 0, -7.14, -29.2, -11.6, -19.3, -32.6, -13.7, -1.86, 2.58, -2.01 (2×), -6.43, -38.4, 5.3, 1.16, -5.95, -15.9, -10, 0.606, -19.8, 3.46, -17.9, 2.09, -2.18, 2.42, -6.19, 2.54, 2.77, -8.3, -10.9% and inactive: 102, 100, 21.9, 23.7%”; in the assay with OVCAR-5 ovarian (25 µM, runs of 1997) it was “active: -4.39, -10.7, -12.5, -3.4, -7.84, -41.2, 1.01, -21.5, -7.3, -27, -40.5, -0.249, -33.4, -4.07, -13.4, 3.28, -80.7, -12.7, -7.83, -5.92, -43.3, 6.93, -6.63, 3.06, 8.48, -2.45, 6.95, -35.9, -13.2, 7.46, -22.2, 7.5, -29.4, -4.22, 4.01, 3.31, -4.52, 4.91, -11.5, -3.46, -27.5, -14.4% and inactive: 10, 13.7, 13.9, 15%”; with OVCAR-5 ovarian (25 µM, runs of 1998), “active: 8.13, -2.01, -1.49, 4.87, -15.7, 3.64, -22.8, -15.8, 3.42, -4.14, -40.7, -43.4, 3.21, -12.6, -18.8, 8.05, -4.92, -33.5% and inactive: 13.4, 10.4, 12.3, 17.2, 28, 15.8%”; in the assay with OVCAR-5 ovarian (25 µM, runs of 1999), “active: 4.85, -8.88, -29.1, 5.42, -40.5, -100, -60.5, -88.5, -25.8, 0.247, -40.8, 3.89, -30.7, -65.6, -82.7, -45, -31.4%”; in the assay with OVCAR-5 ovarian (25 µM, runs of 2000), “active: -47.2, -100, -49.2, -75.4%”. The growth result with OVCAR-4 ovarian (runs of 2006) was “inactive: 61.2%, 75.1%”; in the assay with OVCAR-4 ovarian (runs of 2007) it was “inactive: 80, 76.7, 61.5, 70.7, 72.4, 75.4, 80.6, 70.5, 75.9 (2×), 85.6, 65.6, 71.8, 73.5 (2×), 68.3, 64.5, 69.5, 76.5, 69.8, 77.2, 79.6, 72.7 (2×), 82.9, 87.3, 82.4, 89.7, 77.4, 72.8, 43.9, 78.9, 70.3, 79.4, 79.8, 81, 61.2, 77.9, 69.9, 57.7, 58.9, 96.7, 85.5%”; in the assay on OVCAR-4 ovarian (runs of 2008), “inactive: 67.2, 70.9, 80.6, 70.7, 75.3, 68.4 (3×), 66.1, 59.5, 63, 80.1, 76.3, 76, 82.4, 87.7, 35.5, 55.5, 59.4, 63.4, 61, 62.2 (2×), 54.3, 58.6 (2×), 56.6, 52.2, 66, 59.1, 86.3, 58.4 (2×), 52.7, 51, 68.7 (2×), 50, 58, 43.4, 60.1, 57.5, 65.5, 72.2, 72.4, 68, 60.3, 64.4, 74, 77.5, 16.3, 62.5, 74.1, 44.8, 80.2, 70.2, 62.9, 64.8%”; in the assay on OVCAR-4 ovarian (runs of 2009) it was “inactive: 51.6, 57.9, 70.9 (2×), 63.3 (2×), 60, 62.4, 67, 76.5, 69.1, 70.5, 66.9 (3×), 78.6, 76.8, 66.8 (4×), 65 (2×), 68.9, 66.5, 65.2, 57.7 (2×), 59.7, 59.4, 60.9, 60.1, 56.5, 64.7 (2×), 75.9, 68.6, 61.9, 69.8, 62 (2×), 67.9, 59.8, 56.4, 55.8, 63.2, 58.1, 62.9, 69.7, 75, 65.8 (2×), 64.3, 63.6, 71.9, 61.3, 61.1, 58.8, 59.9, 67.8, 63.9, 46.9, 60.3, 56.9, 59.2, 79.7, 72.8, 88.3, 86.1, 76.1, 78.2, 69.5, 78.9%”.
